Some of these densities may be calculated back from excess volumes.
Test: xn = mol fraction of the nth substance listed
Details: 101 kPa, x1 = 0.766

CC[NH3+].O=[N+]([O-])[O-] + CCCCCCCCO
Details	mass density [kg/m3]
313.57 K	1065
313.58 K	1065
313.59 K	1065
313.61 K	1065
313.62 K	1065
313.65 K	1065
313.67 K	1065
313.7 K	1065
313.72 K	1064.9
313.73 K	1064.9
313.74 K	1064.9
313.83 K	1064.9
313.92 K	1064.8
314.02 K	1064.8
314.17 K	1064.7
314.38 K	1064.5
314.66 K	1064.4
314.76 K	1064.3
314.97 K	1064.2
315.17 K	1064
315.58 K	1063.8
316.6 K	1063.1
317.3 K	1062.7
320.18 K	1060.7
322.16 K	1059.4
323.04 K	1058.7
325.03 K	1057.3
332.99 K	1051.2
